Measurements taken from PMC10726135.
Some of the results follow. At the low end of the ranking the order means little. Measured with an extract: partners may take part in the binding.

Each sequence was assayed against T1, HNF4alpha8 (COS-7 nuclear extract) (UniProt P41235-5) (assay: protein-binding microarray). Settings: COS-7 nuclear extract on double-stranded Agilent 4x180k PBM; binding buffer, salt, pH and temperature not given; high values mean tight binding; double strand, one strand shown; sequences stand for … in …GCCTAGGGAGATTAGAGTATCGGTCGA.
T1 sequence: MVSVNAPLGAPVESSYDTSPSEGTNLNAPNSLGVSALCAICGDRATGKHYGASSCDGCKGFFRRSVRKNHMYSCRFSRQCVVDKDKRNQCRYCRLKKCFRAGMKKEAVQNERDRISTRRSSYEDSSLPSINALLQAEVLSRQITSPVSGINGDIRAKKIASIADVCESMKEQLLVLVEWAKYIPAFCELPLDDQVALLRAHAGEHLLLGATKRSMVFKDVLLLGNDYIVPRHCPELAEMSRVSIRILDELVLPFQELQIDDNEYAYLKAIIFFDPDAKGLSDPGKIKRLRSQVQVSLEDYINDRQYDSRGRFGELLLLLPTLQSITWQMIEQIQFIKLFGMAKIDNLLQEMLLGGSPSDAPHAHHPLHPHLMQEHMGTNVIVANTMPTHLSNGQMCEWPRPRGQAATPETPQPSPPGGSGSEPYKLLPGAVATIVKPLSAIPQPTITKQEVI

Row | Sequence | binding signal (log2 normalized intensity)
1 | AGAAAGCAGCCATAGACGATGTGTAAACAA | -1.34
2 | ATATAATCATTCATGGGCCAAAGTTTGTTT | 2.25
3 | GCAAAGGTCACTCTTGCTATGCCTTAGCAA | 0.78
4 | GTGCAAAGGTTAAAATGCCCTCACAGGTTC | 2.19
5 | AAAGTTCAGTTGCAAAGAACAGAATCCAGT | -0.777
6 | TTCATTGCACTTTGCCCTCTCTTCAGCACC | 6.34
7 | GTATGGTAAGGTCGACCTTTAAACGTTTGC | 5.81
8 | ACTGAAAGGGAACCCTAATCCACATGCTAT | -1.26
9 | ATCCCCGCCCCCAACGGGCCACGCCCTGCA | 4.65
10 | CTTCCATATAACCCTTGAACCTTCTTCTTG | 4.81
11 | TAGCTCATTAAGCTTAGCGTTATCAAACCA | -1.31
12 | CACTCATCCCTTGCACTGCTCAGGGTGGGG | 0.0631
13 | GCCTGGACCTTGGAATGTCAAGATTGAGAC | 2.54
14 | TAACCATGGGGGCTCAGGGCCTCTCTTCTT | -1.38
15 | CCTCTCCTCCATGGCCTGGGGCCCTACCTG | -1.32
16 | AAAAAAAGAACACAGTGTAGAAGGCAAGGG | -1.23
17 | CGATAAGGAGGAAGGACACTTAGAGATAAG | -1.35
18 | CTGGCCTCTGTGAAGTGGAGATAATAGGAG | -1.23
19 | AGAATGTGGCCATTTTACTTGTCAAGGATC | 0.43
20 | TACAGGCGTGAGCCACCGCGCCCCGCCCCC | 6.17
21 | TCATGAGTAGAGAGCAATCATGGGCCCACA | -1.37
22 | CCTTTGGGAGCAGTGGGCATATCTTTTTAT | 1.53
23 | CCTCCATGGCCTGGGGCCCTACCTGCACTT | -1.2
24 | GCATAGGAAGTGGGGAAGAAGTGTTCCCCT | 0.597
25 | TCCTTATCTGTAGAAGGCAAAGCTTGGCCA | -1.34

Row | Sequence | binding signal (log2 normalized intensity)
26 | ATTTGGAAAACATCATTCCGTGACTGAGCT | -1.29
27 | CCGAATGTCCAGACTGTGCATACCAAGAAC | -1.36
28 | ACATTCCCTTCTTAGGGCAACATTCTTATC | 1.07
29 | CCAGGGAGTGCAGCTGCAGGTGTGGGGGCG | -0.342
30 | AAGGAGCAGATGGCTAGTGACTCAGAGCAT | -1.15
31 | ATTGACATTTGGGGTCAGATAATTCTTTGC | 2.42
32 | CTTCTCCGCGGCGGGCCCTCGACCTTTGCC | 5.8
33 | TTGGAACCTGAAAGAGCAACTACTCTCTCT | -1.14
34 | CCGGCACGGTTTCGTGGGGACCCAGGCTTG | -1.34
35 | AGTGCTTTTCAATCTTATTTTTACTATGTG | 1.85
36 | CCCTTGCTTGACCCATTATGGCCACTGTGT | 1.68
37 | ACCAAGTGAACTGTGACCTGATGACAAAGG | 2.25
38 | TGACAACCAGGGCAGGGAAAGGGGGTTTGC | -1.4
39 | CCCACCCCCCTGCTCCAGGCCGGCTTGCGT | 4.32
40 | AACCCTAATCCACATGCTATTATTTTCCAT | -1.19
41 | AGAGAAGCACTGCAGTTTAAGTCTGAAGGC | -1.4
42 | GGCTAGGCTGATAAGGAGGGTAACAATGCT | -1.45
43 | CTTTAAGTGTGGGGTGACTGACTTAACCCT | 2.08
44 | GCCAGGAAGCAATGGCCCTCAGCAAACCTT | -1.33
45 | GGACTTTCAGGAATGCACCCTTTTGACCAC | 3.34
46 | AGATGAGATGGTCAAAGGTTGATGGTATGT | 3.82
47 | TGTACCTCTGGTGATTACCAGTTATTACGG | 0.3
48 | CAACACCCAGGCTTATCTCACTCCAAAGGC | -1.3
49 | CTCTCCCGCCTCTTGGCCTCCCCCTTCTGA | 4.44
50 | ATCCCAATTCACTGACACAAATTATGTCAG | -1.33

Row | Sequence | binding signal (log2 normalized intensity)
51 | ATTCCACTGACTGCTTTATCAGTGTAGTTT | 0.395
52 | CCTCTGCACCCCACCAAGGACTGGACCACC | 2.79
53 | AATCTACAAATGTTTCAACATGACAGATAA | -0.275
54 | TCTTTCTCAAGCCAGACTGGTTTTTCTTGG | 1.31
55 | CTTGTAATTCAAGACTATAGACTGTGATAA | 0.981
56 | TTTGTTCACCCACCAGAGGGAACGCCCGAC | -0.267
57 | CAGCAGCGGATCCAACCTGTTCTTTTGAGC | 0.0369
58 | TATTAGGCAAAAGAGATAGCGAGAAGGCAG | -0.999
59 | CCAGTGGAGTAGGCTTTAGATAAGGTATGT | 0.622
60 | CGGTCAAGTCAGAGGCCCAGCAAGGAGAAA | -1.32
61 | AGATACAGGTCAGACCCTGGAATTCCAGAA | 0.684
62 | ATTGGGTCCACACATTCCTAGACCTTTGAC | 3.87
63 | AAAGAGCTTTTGGGCAGAGACTATGTGGTT | 0.636
64 | CATGGCAGATGTCTGTGTTCACATAGGGGC | 1.45
65 | AGAGCAGTTCAGCTCTCTTTGCTCTCCTCC | -1.29
66 | GAAGTGTTTGTCAAGCTCAATGCAACCAGT | 0.124
67 | AAGTGTGGTCAAGGGTCAGTTTCTGAGAGT | 4.14
68 | TGTGGGGGCGGCAGGAGCCACAAGCCGGAG | -1.21
69 | GCAATCACGCCTCAAATGAGCTTTTGATGA | -1.34
70 | TCATGCCTTAGCTCTAGACATCGACCTTTG | 6.43
71 | CTGTAAATAAATGTCATTTAAGACGAGTGG | -0.0815
72 | GCTTTTCTCAAGTTCAGTCTTTATTGGTAC | 1.94
73 | GCTAAGTCCAAAGGTAAAAACTGGCTCTTA | 3.07
74 | CAGGAAGAACTGGTCCGCCTTCATTCCTAG | -1.34
75 | GGGAGTTAATCACAGGATTTAAAGAATTCC | -1.4

Row | Sequence | binding signal (log2 normalized intensity)
76 | TCTCCCTCTAGAGCAAAAGACAAGTTGGTT | -0.00707
77 | GGTCTAAAAGTAGCTGTTGGAATTTGGTCA | 5.25
78 | TTTGCTCACTGTAACCTTTGCCCCCCAAGT | 9.22
79 | GGAAGCGATGGGCTGGCCCTGAGCCAAGGG | -1.4
80 | TTGTAAATATAGGATCATGTTGTCTGCAAA | 0.753
81 | TCAAACATCACATTCCCCAGGCAATCTTCC | 0.765
82 | ATTTAGGGTATTTCCTAAACCAACTATAGA | -1.32
83 | TGAGTGCAAAGTCCCTAGAAGGGATCCAGC | 1.88
84 | ATAGGGCTTGAAAAGAAGAAAAAACAGGTG | -1.37
85 | GGGCTCCTTTGATCTCCGTGTTTGGAATTG | 2.2
86 | TACCTGGTTAAAAGGACAACCTTCGGCCGG | 3.04
87 | CAGAACTAGCAAGTGCCAAGATGCTAAGGC | -1.35
88 | TATCCATTTATCTCAGGTGAGCAGAGGGAG | 2.55
89 | GAAAGGGTCAAAGGTTAAGCCATTGGGCAA | 6.36
90 | AGGCAAAGGCCACAGCTCAGATCACAAAAG | -1.25
91 | AGTCTTTGCCCCACTGCAAGTTGACATAAC | 2.31
92 | AACATTAGTATCACTGTGAAGACGTTAGGG | -0.174
93 | CTCGGATCCTCTGGGCTGGCTTTCATTCCA | -1.43
94 | CACTATCACCAGGATGGGCCATGACCTTTA | 4.97
95 | ATCTGACCCCTTCTTGACCTGCGTAGCCCA | 2.74
96 | GCTCCACCCAGTTCGTGCTTCTTGGCCTCT | 1.93
97 | GGTGCGACGAACGGGTAAATCCGGTTTGGG | -1.3
98 | TTTTCGAGGAGTCAAAAGGTGTATGTGGAC | 2.11
99 | TCCCTCTCACGGTAACAGCCGGAGAGGCAA | -0.906
100 | TTCTCCCAGGCCATACAGATACCCAGGCAT | -1.26

Row | Sequence | binding signal (log2 normalized intensity)
101 | TTTGTGTGTGTGTGTGTGTGTCTGTAGTTT | 3.03
102 | TCCCTGGTATGTACTTTCTTTTGGCTCTCT | 1.57
103 | TGGCCTGGCATTTGAGACTAGCCACAATAG | -1.26
104 | TCAATGTGATCAGGTGTGGGCATTAGCAGG | 0.344
105 | GACGGGAGGAAAACTGGGCAAAGGTCAGGA | 5.58
106 | TATGGATTAAATCTTGTTGGCTTGACGCTA | -1.32
107 | AGCCTGAGCCACTTCACTGGTGTGATCTTT | 3.52
108 | AGCTCAATCAAGGTTCACTGCAGCCTTGAC | 0.0732
109 | CCTCGACCTTCGGCTGGGGATGAAGGGGGC | 0.561
110 | AGCAGACACTGAAAGATGGTATGCTCTGAT | -1.26
111 | GGGCCAAGCTTAGGAATTCCAAGAAGGCAG | -1.04
112 | GGGCTTTTGTCACATTCCAGACTTTGTACA | 5.85
113 | GGCCCCTGAGCACTGTCTCAGGGTCCACAT | 3.58
114 | TCTGGGAGTGCCCTTGCCGAGAGCGGCTCG | -1.33
115 | GAGCAGCACTTTTGGAGTTTGACCTGGAGC | 6.24
116 | TTTGGAATTCCCTGCAAGGACAAAGGTCAT | 7.71
117 | GCTGTTAGCTGAAGGACGTCAGAACTGTCC | -1.24
118 | TGGAATCCAAAGTATTTTCTGTCTAGGTGC | 0.637
119 | GAAAAAAAACCATTGCAAATTGGATGTTGA | 1.48
120 | TTAACAAGGACAAAGGTCAACAAACGCCCC | 5.93
121 | AAGTCTGAAGGCAGGGCTTTTCCATTGACA | -1.18
122 | AGGAGGTCAGAACTGTGGACTCGCTGCCTT | 1.39
123 | TACCAGCCAATTAGAAGGCTCCCTGCTGCG | -1.22
124 | AAACAGACCTCTCTCTCCCCAGACAGCCAC | 2.71
125 | GGTATAAAGGTCAGGGATAGAACTGGTCCT | 2

Row | Sequence | binding signal (log2 normalized intensity)
126 | TACATGAGGAGTGAGAACAGACAAAATTAA | -1.19
127 | AATCTCTGCACAGCATAGAAAACAAGTTAG | -1.12
128 | TTTTCAACATATACTTTGAACTTGTTTTTT | 2.56
129 | CCATGGTGTAATGGTTAGCACTCTGGACTC | 4.29
130 | TGTGATGAAGGCAGAAAGAAAAGGGGACCT | -1.29
131 | AAAACAAAGGAAACCAAACATTGAAATCTT | -1.33
132 | TAAGCACACTAAGGCTAAAGATTACGAACT | -1.35
133 | TTACGGTTAGGGTTAGGGTTAGGGTTAGGG | 0.777
134 | GGCCTGATGGTGAGTTCTGTCCTTTGTCCC | 4.03
135 | AGCTCTCTTTGCTCTCCTCCTAATCACTGC | -0.774
136 | CTTGTTATCTTGTCTCTTCTTGTACCTCTG | 2.1
137 | TTCCAGAGCCTTCAAAGGAAAGCAGGTGTT | -1.26
138 | ACTGTCAGCAGGGGGATCCACTTCCTATCC | -1.21
139 | TCATGGAGGACTTTGGCCTTTTGTGAGATA | 5.84
140 | CATCCCTCTCTTGCTGGGCCCCCAGATTGA | 2.39
141 | TCGAGATGGCTAATCAGTATTGAGGCCGGA | -0.189
142 | AGCCTTATTCTTTGATCTCTTATCACCCTG | 1.55
143 | TCGCTCCCCTCCTGTCAGTTTATTTACTGT | 1.51
144 | CAGATGCCTGCACACGGTGTCCAGATTCCA | -0.675
145 | AGGTGTGCTGAGGAAACTGACAGGAAACTG | -1.34
